Some of the results follow. The source does not settle which construct or isoform was used.

Here are results for 102 sequences from article PMC5892938.

For the assay, the target named is GST-SBP-ILF3 (Homo sapiens) (UniProt Q12906). In words: targeted RNA Bind-n-Seq. Particulars: RBNS binding buffer: 25 mM Tris pH 7.5, 150 mM KCl, 3 mM MgCl2, 0.1% Tween, 0.5 mg/mL BSA, 1 mM DTT; 27 nM protein, 750 pM RNA pool; temperature not stated; high values mean tight binding; sequences stand for … in GGGUAAAAGCGAGGUGAA…CGGGACAAGUAUUAUGGG
“GGUUGUUGUGUUGGUGCCUAACACAGCAAC [gtspaired]”: the binding signal (log2 fold change) is -0.313.

Turning to “UUUUUUUUUUGAGACUGACACAGUCUCCGG [tttttgagapaired]”, the binding signal (log2 fold change) was 0.284.

For the sequence “UUUUUUUUUUGAGAGUGAGGCACUCUCCUA [tttttgagapaired]”, the binding signal (log2 fold change) stood at 0.0839.

As for “GUGGUUGGUGUUGGCCUCUAACACCAGCCG [gtspaired]”, the binding signal (log2 fold change) is -0.466.

As to “UUUUUUUUUUGAGAGCGGUACGCUCUCCUG [tttttgagapaired]”, the binding signal (log2 fold change) is -0.185.

Regarding “UUUUUUUUUUGAGAGGGAGCCCCUCUUCUG [tttttgagapaired]”, the binding signal (log2 fold change) was 0.437.

Consider “UUUUUUUUUUGAGAGGGGGACCCUUUCCAG [tttttgagapaired]”, for which the binding signal (log2 fold change) turned out to be 0.513.

With “UUUUUUUUUUGAGAUCGGCACGAUCUCCGG [tttttgagapaired]”, the binding signal (log2 fold change) was 0.211.

Regarding “UUUUUUUUUUGAGACUGUGACAGUCUCCGG [tttttgagapaired]”, the binding signal (log2 fold change) was 0.477.

For the sequence “UUUUUUUUUUGAGAUGGUUUCCGUCUCCUA [tttttgagapaired]”, the binding signal (log2 fold change) was 0.347.

For the sequence “GUGGUGUGUGUUGGCAUCUAACACACAUCG [gtspaired]”, the binding signal (log2 fold change) is -0.608.

With “UUUUUUUUUUGAGAUGGGGCCCAUCUCCUA [tttttgagapaired]”, the binding signal (log2 fold change) was found to be 0.51.

Turning to “UUUUUUUUUUGAGAUGGCGGCCAUCUUCUA [tttttgagapaired]”, the binding signal (log2 fold change) amounted to 0.533.

Take “UUUUUUUUUUGAGACGGAAGCCGUCUUCUA [tttttgagapaired]”: the binding signal (log2 fold change) worked out at 0.183.

As to “GUGUGUUGUGUUGGUUCCUAACACAGCACG [gtspaired]”, the binding signal (log2 fold change) is -0.596.

Consider “UUUUUUUUUUGAGAGGGCGUCCCUCUCCAG [tttttgagapaired]”, for which the binding signal (log2 fold change) was determined as 0.959.

Turning to “UUUUUUUUUUGAGAUCGAUGCGAUCUCCUA [tttttgagapaired]”, the binding signal (log2 fold change) turned out to be 0.17.

Take “UUUUUUUUUUGAGACGGCUCCCGUCUCCUA [tttttgagapaired]”: the binding signal (log2 fold change) was 0.734.

As to “UUUUUUUUUUGAGAGCGGGUCGCUCUCCAG [tttttgagapaired]”, the binding signal (log2 fold change) was 0.339.

For the sequence “UUUUUUUUUUGAGAUGGGCUCCAUCUCCUG [tttttgagapaired]”, the binding signal (log2 fold change) is 0.75.

For the sequence “UUUUUUUUUUGAGACUGCGACAGUCUCCUA [tttttgagapaired]”, the binding signal (log2 fold change) turned out to be 0.315.

As for “GUGUGGUGUGUUGGACCCUAACACAUCACA [gtspaired]”, the binding signal (log2 fold change) is -0.409.

On to “GGUUGUUGUGUUGGAACCUAACACAGCAAC [gtspaired]”, for which the binding signal (log2 fold change) was -0.254.

In the case of “UUUUUUUUUUGAGAGCGACGCGCUCUCCUA [tttttgagapaired]”, the binding signal (log2 fold change) was determined as 0.11.

In the case of “GUGGUGUGUGUUGGAGCCUAACACACGCCG [gtspaired]”, the binding signal (log2 fold change) was -0.42.

In the case of “GUUGUGUGUGUUGGCAUCUAACACACGCAG [gtspaired]”, the binding signal (log2 fold change) was -0.762.

Regarding “GUGGUGUGUGUUGGCCUCUAACACACACUA [gtspaired]”, the binding signal (log2 fold change) was -0.378.

“UUUUUUUUUUGAGAGCGAGUCGCUCUCCUA [tttttgagapaired]”: the binding signal (log2 fold change) is 0.111.

As to “UUUUUUUUUUGAGAGCGGCACGUUCUCCUA [tttttgagapaired]”, the binding signal (log2 fold change) is 0.231.

In the case of “UUUUUUUUUUGAGAGCGGGUCGCUCUUCUG [tttttgagapaired]”, the binding signal (log2 fold change) amounted to 0.46.

With “UUUUUUUUUUGAGAUGGGGGCUAUCUCCGG [tttttgagapaired]”, the binding signal (log2 fold change) worked out at 0.765.

As for “UUUUUUUUUUGAGACGGCUACCGUCUCCGG [tttttgagapaired]”, the binding signal (log2 fold change) was 0.373.

Regarding “UUUUUUUUUUGAGACGGAAGCUGUCUCCAG [tttttgagapaired]”, the binding signal (log2 fold change) worked out at 0.817.

Regarding “GUGGUGUGUGUUGGACUCUAACACAUACCG [gtspaired]”, the binding signal (log2 fold change) is -0.535.

Take “GUGUGUGGUGUUGGCGUCUAACACCGCAUA [gtspaired]”: the binding signal (log2 fold change) is -0.591.

As for “GUGUGUUGUGUUGGUAUCUAACACAGCACA [gtspaired]”, the binding signal (log2 fold change) is -0.738.

With “GUGUGGUGUGUUGGUGCCUAACACAUCACG [gtspaired]”, the binding signal (log2 fold change) is -0.539.

As to “UUUUUUUUUUGAGACUGGUUCAGUCUCCGG [tttttgagapaired]”, the binding signal (log2 fold change) was determined as 0.000972.

In the case of “UUUUUUUUUUGAGAUGGUUUCCGUCUCCGG [tttttgagapaired]”, the binding signal (log2 fold change) came out at 0.679.

Take “GGUUGUGGUGUUGGAGCCUAACACCGCAGC [gtspaired]”: the binding signal (log2 fold change) was -0.319.

Regarding “GUGUGUUGUGUUGGAACCUAACACAGCACG [gtspaired]”, the binding signal (log2 fold change) was -0.884.

In the case of “UUUUUUUUUUGAGACUGCGACAGUCUCCGG [tttttgagapaired]”, the binding signal (log2 fold change) worked out at 0.385.

In the case of “UUUUUUUUUUGAGACGGUAGCCGUUUCCUA [tttttgagapaired]”, the binding signal (log2 fold change) is 0.273.

With “UUUUUUUUUUGAGAGGGGCUCCCUUUCCAG [tttttgagapaired]”, the binding signal (log2 fold change) turned out to be 0.642.

For the sequence “GUGGUGUGUGUUGGUACCUAACACAUACUA [gtspaired]”, the binding signal (log2 fold change) was -0.816.

Consider “UUUUUUUUUUGAGAGGGUGUCCCUCUCCUG [tttttgagapaired]”, for which the binding signal (log2 fold change) is 0.958.

“UUUUUUUUUUGAGAGUGCAGCAUUCUCCAG [tttttgagapaired]”: the binding signal (log2 fold change) came out at 0.337.

On to “UUUUUUUUUUGAGAUCGUAACGAUCUCCAG [tttttgagapaired]”, for which the binding signal (log2 fold change) turned out to be 0.0559.

Take “UUUUUUUUUUGAGAACGGAGCGUUCUCCAG [tttttgagapaired]”: the binding signal (log2 fold change) amounted to 0.206.

In the case of “UUUUUUUUUUGAGAUGGCAUCCAUCUCCUA [tttttgagapaired]”, the binding signal (log2 fold change) was determined as 0.212.

On to “UUUUUUUUUUGAGAUCGGUACGAUCUUCUG [tttttgagapaired]”, for which the binding signal (log2 fold change) is 0.135.

As to “UUUUUUUUUUGAGAGGGCAGCCCUCUCCGG [tttttgagapaired]”, the binding signal (log2 fold change) was determined as 1.06.

Consider “GUGUGUUGUGUUGGACCCUAACACAGCGCA [gtspaired]”, for which the binding signal (log2 fold change) is -0.465.

On to “GGUGUUGGUGUUGGUUCCUAACACCGACGC [gtspaired]”, for which the binding signal (log2 fold change) was -0.151.

Turning to “UUUUUUUUUUGAGAUGGUAACCAUUUCCAG [tttttgagapaired]”, the binding signal (log2 fold change) stood at 0.185.

For “UUUUUUUUUUGAGAGCGGAUCGCUCUUCUG [tttttgagapaired]”, the binding signal (log2 fold change) is 0.201.

As to “UUCCUCUCUCCUCCUGGGGAGGGGGGAGGA [ctspaired]”, the binding signal (log2 fold change) is -0.174.

As to “UUUUUUUUUUGAGAAGGACUCCUUCUCCUG [tttttgagapaired]”, the binding signal (log2 fold change) stood at 0.0114.

With “GUGGUGUGUGUUGGCCCCUAACACACACUA [gtspaired]”, the binding signal (log2 fold change) was -0.133.

“UUUUUUUUUUGAGACGGAAACUGUUUCCAG [tttttgagapaired]”: the binding signal (log2 fold change) was found to be 0.631.

Regarding “UUUUUUUUUUGAGAACGAGGCGUUCUUCUA [tttttgagapaired]”, the binding signal (log2 fold change) turned out to be 0.108.

On to “UUUUUUUUUUGAGAUGGAUGCCAUUUCCGG [tttttgagapaired]”, for which the binding signal (log2 fold change) was determined as 0.553.

As to “GUGUGUGGUGUUGGAUUCUAACACCGCACG [gtspaired]”, the binding signal (log2 fold change) was -0.0941.

Regarding “GUUGGUGGUGUUGGAACCUAACACCAUCAA [gtspaired]”, the binding signal (log2 fold change) was -0.266.

For the sequence “UUUUUUUUUUGAGAGGGGCGCCCUCUCCUG [tttttgagapaired]”, the binding signal (log2 fold change) was 0.772.

Turning to “UUUUUUUUUUGAGAGCGGAUCGUUCUCCAG [tttttgagapaired]”, the binding signal (log2 fold change) came to 0.252.

Consider “UUUUUUUUUUGAGAGGGCUUCCCUCUCCUG [tttttgagapaired]”, for which the binding signal (log2 fold change) was determined as 0.824.

“UUUUUUUUUUGAGAUGGAUUCCGUCUCCAG [tttttgagapaired]”: the binding signal (log2 fold change) turned out to be 0.162.

Take “GUGUUGUGUGUUGGUCCCUAACACACAACG [gtspaired]”: the binding signal (log2 fold change) is -0.155.

In the case of “GGUGUGUGUGUUGGAUCCUAACACAUACAC [gtspaired]”, the binding signal (log2 fold change) is -0.491.

With “UUUUUUUUUUGAGAACGUGGCGUUCUCCGG [tttttgagapaired]”, the binding signal (log2 fold change) turned out to be 0.31.

As to “UUUUUUUUUUGAGACUGGAUCAGUCUUCUA [tttttgagapaired]”, the binding signal (log2 fold change) was -0.0568.

“GGUUGUUGUGUUGGCACCUAACACAACGAC [gtspaired]”: the binding signal (log2 fold change) is -0.235.

Regarding “UUUUUUUUUUGAGAGGGUCCCCCUCUCCUG [tttttgagapaired]”, the binding signal (log2 fold change) was 0.654.

With “GUGGUGUGUGUUGGUCCCUAACACACACUA [gtspaired]”, the binding signal (log2 fold change) was -0.256.

For the sequence “GUGGUUGGUGUUGGCGUCUAACACCGAUCA [gtspaired]”, the binding signal (log2 fold change) was -0.612.

Take “UUUUUUUUUUGAGACCGGGACGGUCUUCUA [tttttgagapaired]”: the binding signal (log2 fold change) is 0.546.

Turning to “UUUUUUUUUUGAGACGGGAACUGUCUCCUA [tttttgagapaired]”, the binding signal (log2 fold change) came to 0.736.

In the case of “UUCCUCUCUCCUCCGGUGGAGGGGGGAGGA [ctspaired]”, the binding signal (log2 fold change) was -0.689.

On to “UUUUUUUUUUGAGAUGGGGGCCAUCUUCUG [tttttgagapaired]”, for which the binding signal (log2 fold change) worked out at 0.796.

With “UUUUUUUUUUGAGACCGAUUCGGUCUUCUG [tttttgagapaired]”, the binding signal (log2 fold change) came to 0.18.

Take “UUUUUUUUUUGAGAUGGGAGCCAUCUUCUA [tttttgagapaired]”: the binding signal (log2 fold change) came out at 0.119.

Turning to “GGUGGUUGUGUUGGCACCUAACACAAUCAC [gtspaired]”, the binding signal (log2 fold change) was -0.668.

“GUUGGUGGUGUUGGCCCCUAACACCGCCAA [gtspaired]”: the binding signal (log2 fold change) was -0.0443.

Turning to “UUUUUUUUUUGAGAUGGUAGCCAUUUCCAG [tttttgagapaired]”, the binding signal (log2 fold change) was 0.368.

For “UUUUUUUUUUGAGAUGGCGUCCAUCUCCUG [tttttgagapaired]”, the binding signal (log2 fold change) is 0.812.

As to “UUUUUUUUUUGAGACUGGCACAGUCUCCUG [tttttgagapaired]”, the binding signal (log2 fold change) was 0.56.

For “UUUUUUUUUUGAGACCGGUUCGGUCUUCUG [tttttgagapaired]”, the binding signal (log2 fold change) is 0.511.

For the sequence “UUUUUUUUUUGAGACGGACACCGUCUUCUG [tttttgagapaired]”, the binding signal (log2 fold change) stood at 0.521.

Turning to “UUUUUUUUUUGAGACCGUGACGGUCUCCUG [tttttgagapaired]”, the binding signal (log2 fold change) was determined as 0.389.

For “UUUUUUUUUUGAGAGUGCGACAUUCUCCGG [tttttgagapaired]”, the binding signal (log2 fold change) came out at 0.269.

In the case of “UUUUUUUUUUGAGACGGUAUCCGUUUCCAG [tttttgagapaired]”, the binding signal (log2 fold change) is 0.531.

With “UUUUUUUUUUGAGACUGAGACAGUUUCCGG [tttttgagapaired]”, the binding signal (log2 fold change) turned out to be 0.532.

As for “UUUUUUUUUUGAGAGCGAGACGCUCUUCUG [tttttgagapaired]”, the binding signal (log2 fold change) amounted to 0.353.

As for “GUGUGUUGUGUUGGUGUCUAACACAGCACA [gtspaired]”, the binding signal (log2 fold change) is -0.689.

With “UUUUUUUUUUGAGACUGGUGCAGUCUCCGG [tttttgagapaired]”, the binding signal (log2 fold change) turned out to be 0.297.

On to “UUUUUUUUUUGAGACCGUAACGGUCUCCAG [tttttgagapaired]”, for which the binding signal (log2 fold change) was 0.161.

“UUUUUUUUUUGAGAUGGAGUCCGUCUCCUA [tttttgagapaired]”: the binding signal (log2 fold change) is 0.308.

As to “UUUUUUUUUUGAGAGCGUAUCGUUCUCCAG [tttttgagapaired]”, the binding signal (log2 fold change) was determined as 0.137.

Regarding “UUUUUUUUUUGAGAGGGACUCCCUCUCCUG [tttttgagapaired]”, the binding signal (log2 fold change) was determined as 0.419.

Consider “GGUUGGUGUGUUGGAACCUAACACAUCAGC [gtspaired]”, for which the binding signal (log2 fold change) was -0.381.

Consider “GGUGUGUGUGUUGGCGCCUAACACAUACGC [gtspaired]”, for which the binding signal (log2 fold change) was -0.403.
